{"source": "PubChem BioAssay AID588795", "about": "(National Center for Advancing Translational Sciences (NCATS), 2011)", "note": "“And” between values parts separate entries of the source, which are not always exact repeats. Equal values may be shown once. Screen size: about 390,000 compounds; about 1,400 (0.36%) were called active. Inconclusive results, whose numbers are uncertain, are shown with a selection of clear calls. Calls follow the shape of the dose curve; as a rule, active = well fitted inhibition curve with a large enough effect; inconclusive = small, poorly fitted or top-dose-only effect; inactive = no such curve, though single readings can be large or run the other way. A potency beside an inconclusive call is a rough fit, not a confirmed value. Potency is read from the fitted curve at half-maximal effect; tags tell the direction and shape of the fitted curve.", "data": [{"target": "Flap endonuclease 1 (Homo sapiens) (UniProt P39748)", "sequence (P39748 whole entry, looked up)": "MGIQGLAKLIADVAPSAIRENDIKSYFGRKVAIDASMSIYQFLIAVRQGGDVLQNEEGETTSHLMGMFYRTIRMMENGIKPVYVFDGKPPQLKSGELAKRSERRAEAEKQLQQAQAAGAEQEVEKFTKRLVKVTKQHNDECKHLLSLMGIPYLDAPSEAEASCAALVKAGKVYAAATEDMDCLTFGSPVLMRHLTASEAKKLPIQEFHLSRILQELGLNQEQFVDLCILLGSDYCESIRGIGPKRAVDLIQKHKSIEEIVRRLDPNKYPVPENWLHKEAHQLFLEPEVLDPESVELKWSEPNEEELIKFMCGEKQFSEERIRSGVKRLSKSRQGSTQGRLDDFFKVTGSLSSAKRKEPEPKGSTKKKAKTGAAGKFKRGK", "assay": "qHTS Assay for the Inhibitors of Human Flap endonuclease 1 (FEN1); also: nearly all actives have a fitted effect of over 65% in size.", "settings": "Recombinant FEN1 flap cleavage, fluorescence, 15 min; series mostly up to 114 µM", "outline": "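FEN1 at 10 nM preincubated with compounds 15 min at room temperature, then flap DNA substrate added at 50 nM final. Signal read at 0 and 15 min; concentration-response fitted with four-parameter Hill equation.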", "values": [{"smiles": "COc1ccc(N2C(=O)NC(=O)/C(=C\\c3ccc([N+](=O)[O-])s3)C2=O)cc1", "Potency": "inconclusive: 14.1 µM [inhibitor, full curve, poor fit]"}, {"smiles": "COc1ccc(CCNC(=O)c2c(N)n(CCN3CCOCC3)c3nc4ccccc4nc23)cc1", "Potency": "inactive"}, {"smiles": "COc1cc2c(cc1O)CC1c3c(cc(O)c(OC)c3-2)CCN1C", "note": "(stereo unspecified)", "Potency": "inconclusive: 25.1 µM [inhibitor, single point]"}, {"smiles": "CCC(C)NC(=O)c1c(N)n(CC2CCCO2)c2nc3ccccc3nc12", "note": "(stereo unspecified)", "Potency": "inconclusive: 79.4 µM [inhibitor, partial curve]"}, {"smiles": "Cc1ccc2c(C)c3ccc4ccccc4c3c[n+]2c1", "Potency": "active: 8.91 µM"}, {"smiles": "NC(=O)OCCCc1ccccc1", "Potency": "inactive"}, {"smiles": "O=C1NC(=O)N(CCC2=CCCCC2)C(=O)/C1=C\\c1cccs1", "Potency": "inconclusive: 89.1 µM [inhibitor, partial curve, poor fit]"}, {"smiles": "COc1cccc(-n2c(/C=C/c3ccc(O)c(O)c3)nc3ccccc3c2=O)c1", "Potency": "inconclusive: 89.1 µM [inhibitor, partial curve, poor fit]"}, {"smiles": "ClCCN(CCCl)c1ccc(C=Nc2ccc(/C=C/c3ccnc4ccccc34)cc2)cc1", "Potency": "inconclusive: 79.4 µM [inhibitor, partial curve, poor fit]"}, {"smiles": "Cc1cc(/C=C/c2ccnc3ccccc23)ccc1N(CCCl)CCCl", "Potency": "inactive"}, {"smiles": "CCCCC/C=C\\C/C=C\\C/C=C\\C/C=C\\CCCC(=O)NCC(=O)O", "Potency": "inconclusive: 5.32 µM [inhibitor, partial curve, poor fit]"}, {"smiles": "CN1C(=O)/C(=C\\c2ccc(N3CCCCC3)o2)C(=O)NC1=S", "Potency": "inactive"}, {"smiles": "CCCC(C)(COC(N)=O)COC(=O)NC(C)C", "note": "(stereo unspecified)", "Potency": "inconclusive: 8.44 µM [inhibitor, single point]"}, {"smiles": "C[C@H]1COC2=C1C(=O)C(=O)c1c2ccc2c1CCCC2(C)C", "Potency": "inconclusive: 14.1 µM [inhibitor, full curve]"}, {"smiles": "COc1ccc(/C=C2\\C(=O)NC(=O)N(CCC3=CCCCC3)C2=O)c(OC)c1", "Potency": "inconclusive: 35.5 µM [inhibitor, full curve]"}, {"smiles": "CC[N+](C)(CC)CCCCOc1ccc2c(c1)C(=O)c1cc(OCCCC[N+](C)(CC)CC)ccc1-2", "Potency": "inconclusive: 12.6 µM [inhibitor, full curve, poor fit]"}, {"smiles": "CCN(CC)P(=O)(NC(=O)C(Cl)(Cl)Cl)N(CC)CC.[Cl-].[Cl-].[Cl-].[Nd+3]", "Potency": "inconclusive: 50.1 µM [inhibitor, partial curve, poor fit] and inconclusive: 89.1 µM [inhibitor, single point]"}, {"smiles": "O=C1NC(=O)N(c2cccc(Cl)c2)C(=O)/C1=C\\c1ccc(Sc2nc3ccccc3[nH]2)o1", "Potency": "active: 44.7 µM"}, {"smiles": "CCOC(=O)c1c(C)n(Cc2ccccc2)c2ccc(O)cc12", "Potency": "inconclusive: 28.2 µM [inhibitor, partial curve, poor fit]"}, {"smiles": "O=C1NC(=O)N(Cc2ccco2)C(=O)/C1=C\\c1ccc(-c2ccc(F)cc2)o1", "Potency": "inconclusive: 89.1 µM [inhibitor, single point]"}, {"smiles": "COc1cc(C(c2c(C)[nH]n(-c3ccccc3)c2=O)c2c(C)[nH]n(-c3ccccc3)c2=O)cc(OC)c1OC", "Potency": "inconclusive: 50.1 µM [inhibitor, partial curve]"}, {"smiles": "ClCCN(CCCl)c1ccc(/C=C/c2sc3ccccc3[n+]2CCCCI)cc1", "Potency": "inconclusive: 56.2 µM [inhibitor, partial curve, poor fit]"}, {"smiles": "CC(=O)C1C(N2CC2)CC2C3CC=C4CC(O)CCC4(C)C3CCC21C", "note": "(stereo unspecified)", "Potency": "inconclusive: 50.1 µM [inhibitor, partial curve]"}, {"smiles": "O=C1NC(=O)N(Cc2ccccc2)C(=O)/C1=C\\C=C\\c1ccco1", "Potency": "inconclusive: 79.4 µM [inhibitor, partial curve]"}, {"smiles": "CC(=O)c1cn(CCCOc2ccccc2)c2ccccc12", "Potency": "inconclusive: 70.8 µM [inhibitor, partial curve, poor fit]"}, {"smiles": "CCC1(O)C(=O)OCc2c1cc1n(c2=O)Cc2cc3cc(O)ccc3nc2-1", "note": "(stereo unspecified)", "Potency": "inconclusive: 35.5 µM [inhibitor, full curve]"}, {"smiles": "Cn1cc(C=C2C(=O)NC(=O)NC2=O)c2ccccc21", "Potency": "inconclusive: 79.4 µM [inhibitor, partial curve, poor fit]"}, {"smiles": "C=CCn1c(CSc2ccccc2[N+](=O)[O-])n[nH]c1=S", "Potency": "inconclusive: 56.2 µM [inhibitor, partial curve, poor fit]"}, {"smiles": "C[N+]1(C)C2CCC1CC(OC(=O)c1c[nH]c3ccccc13)C2", "note": "(stereo unspecified)", "Potency": "inconclusive: 33.6 µM [inhibitor, partial curve, poor fit]"}, {"smiles": "CCC1C(c2ccccc2)NC(c2ccccc2)CC1(O)c1ccc(F)cc1", "note": "(stereo unspecified)", "Potency": "inconclusive: 35.5 µM [inhibitor, partial curve, poor fit]"}, {"smiles": "O=C1NC(=O)N(c2ccc(Br)cc2)C(=O)/C1=C/c1ccsc1", "Potency": "inconclusive: 89.1 µM [inhibitor, single point]"}, {"smiles": "CCOc1ccc(N2C(=O)/C(=C\\c3cccs3)C(=O)NC2=S)cc1", "Potency": "inconclusive: 89.1 µM [inhibitor, single point]"}, {"smiles": "Cc1ccc(/C=C2\\C(=O)NC(=O)N(CC3CCCO3)C2=O)s1", "note": "(stereo unspecified)", "Potency": "inconclusive: 89.1 µM [inhibitor, single point]"}, {"smiles": "Cc1ccc(NS(=O)(=O)c2ccc(Cl)c(N=Nc3c(O)[nH]c(=O)[nH]c3=O)c2)cc1Cl", "Potency": "active: 44.7 µM"}, {"smiles": "CC1=C2C3OC(=O)C(C)C3CC[C@@]2(C)C=CC1=O", "note": "(stereo partly specified)", "Potency": "inactive"}, {"smiles": "CCCSc1nc2ccccc2c(=O)n1-c1ccccc1OC", "Potency": "inconclusive: 79.4 µM [inhibitor, partial curve, poor fit]"}, {"smiles": "O=C1NC(=O)N(c2ccc(F)cc2)C(=O)/C1=C/c1ccc2c(c1)CCCN2Cc1ccccc1", "Potency": "inconclusive: 89.1 µM [inhibitor, partial curve, poor fit]"}, {"smiles": "COc1ccc(N2C(=O)/C(=C/c3ccc(N(C)C)o3)C(=O)NC2=S)cc1", "Potency": "inactive"}, {"smiles": "CCn1cnc2c(Nc3cccc(Cl)c3)nc(N[C@@H]3CCCC[C@@H]3N)nc21", "Potency": "inconclusive: 0.15 µM [inhibitor, full curve, poor fit]"}, {"smiles": "c1ccc(C2N3CCCN23)cc1", "note": "(stereo unspecified)", "Potency": "inactive"}, {"smiles": "CCN(CC)C(=O)c1ccc2c(c1)C1C(Cl)C(Sc3ccccc3[N+](=O)[O-])CC1C(C(=O)O)N2", "note": "(stereo unspecified)", "Potency": "inconclusive: 44.7 µM [inhibitor, partial curve, poor fit]"}, {"smiles": "COCCN1C(=O)NC(=O)/C(=C\\c2ccc(Br)cc2)C1=O", "Potency": "inconclusive: 89.1 µM [inhibitor, single point]"}, {"smiles": "C/C=C(\\C)C(=O)N[C@@H](c1ccccc1)[C@@H](O)C(=O)O[C@H]1C[C@@]2(O)[C@@H](OC(=O)c3ccccc3)C3[C@](C)(C(=O)[C@H](OC(C)=O)C(=C1C)C2(C)C)[C@@H](O)C[C@H]1OC[C@@]31OC(C)=O", "note": "(stereo partly specified)", "Potency": "inactive"}, {"smiles": "O=[N+]([O-])c1ccc(N2CCCC2)c(F)c1Br", "Potency": "inactive"}, {"smiles": "O=C1NC(=S)NC(=O)C1=Cc1ccc(Br)s1", "Potency": "inconclusive: 39.8 µM [inhibitor, partial curve]"}, {"smiles": "COc1ccc(N2C(=O)CS(=O)C(c3ccccc3)C2=O)cc1", "note": "(stereo unspecified)", "Potency": "inconclusive: 89.1 µM [inhibitor, single point]"}, {"smiles": "O=C1NC(=O)N(c2ccc(F)cc2)C(=O)/C1=C/c1ccc(N2CCOCC2)cc1", "Potency": "inactive"}, {"smiles": "COC(=O)C1=C(C(=O)OC)SC2(S1)C(C(=O)OC)=C(C(=O)OC)Sc1c2ssc1=O", "Potency": "inactive"}, {"smiles": "CCCNC(=O)c1c(N)n(CC2CCCO2)c2nc3ccccc3nc12", "note": "(stereo unspecified)", "Potency": "inconclusive: 63.1 µM [inhibitor, partial curve, poor fit]"}, {"smiles": "COc1cc2c(cc1OC)C(c1c(O)n(CCc3ccccc3)c(=S)[nH]c1=O)NCC2", "note": "(stereo unspecified)", "Potency": "inactive"}, {"smiles": "Cc1cc(C=C2C(=O)N(C)C(=S)N(C)C2=O)c(C)n1-c1ccncc1", "Potency": "inconclusive: 79.4 µM [inhibitor, partial curve]"}, {"smiles": "O=C1NC(=O)C(=Cc2ccc(SC3CCCCC3)o2)C(=O)N1", "Potency": "inconclusive: 89.1 µM [inhibitor, single point]"}, {"smiles": "CC(C)c1ccc(N2C(=O)NC(=O)/C(=C/C=C/c3ccco3)C2=O)cc1", "Potency": "inconclusive: 79.4 µM [inhibitor, partial curve]"}, {"smiles": "O=C1NC(=O)N(Cc2ccccc2Cl)C(=O)/C1=C/c1cccs1", "Potency": "inconclusive: 17.8 µM [inhibitor, full curve, poor fit]"}, {"smiles": "Cc1cc(/C=C2\\C(=O)NC(=O)N(c3ccccc3F)C2=O)c(C)n1-c1cc(C(=O)O)cc(C(=O)O)c1", "Potency": "inconclusive: 14.1 µM [inhibitor, full curve, poor fit]"}, {"smiles": "Cc1cc2c(C(C)C)c(O)c(O)c(C=O)c2c(O)c1-c1c(C)cc2c(C(C)C)c(O)c(O)c(C=O)c2c1O", "Potency": "active: 2.51 µM"}, {"smiles": "O=C1NC(=O)N(CCc2ccc(F)cc2)C(=O)/C1=C/C=C/c1ccccc1", "Potency": "inconclusive: 3.98 µM [inhibitor, partial curve, poor fit]"}, {"smiles": "O=C1NC(=O)N(Cc2ccc(F)cc2)C(=O)/C1=C\\C=C\\c1ccco1", "Potency": "inconclusive: 22.4 µM [inhibitor, full curve]"}, {"smiles": "O=C1NC(=O)N(Cc2ccco2)C(=O)/C1=C/C=C/c1ccco1", "Potency": "active: 25.1 µM"}, {"smiles": "C[C@]12CC[C@@H]3c4ccc(O)c(O)c4CC[C@H]3[C@@H]1CC[C@@H]2O", "Potency": "inconclusive: 89.1 µM [inhibitor, single point]"}, {"smiles": "CCN(CCCl)c1cc(CN(C)C)cc(NC(=O)c2ccc(C(=O)Nc3cc(CN(C)C)cc(N(CC)CCCl)c3)cc2)c1", "Potency": "inconclusive: 28.2 µM [inhibitor, full curve]"}]}]}
